# Article PMC4336329 (PLoS ONE, 2015)
# The campaign covered roughly 310,000 compounds. About 2,200 (0.71%) showed an effect of 50% or more. The effect is printed as a negative number. Some of the results follow.
# Biological target: human ether-à-go-go-related gene (hERG) potassium channel (human, UniProt Q12809)
# Assay: primary screen, population patch clamp on CHO cells stably expressing hERG
# human ether-à-go-go-related gene (hERG) potassium channel, sequence (Q12809 whole entry, looked up): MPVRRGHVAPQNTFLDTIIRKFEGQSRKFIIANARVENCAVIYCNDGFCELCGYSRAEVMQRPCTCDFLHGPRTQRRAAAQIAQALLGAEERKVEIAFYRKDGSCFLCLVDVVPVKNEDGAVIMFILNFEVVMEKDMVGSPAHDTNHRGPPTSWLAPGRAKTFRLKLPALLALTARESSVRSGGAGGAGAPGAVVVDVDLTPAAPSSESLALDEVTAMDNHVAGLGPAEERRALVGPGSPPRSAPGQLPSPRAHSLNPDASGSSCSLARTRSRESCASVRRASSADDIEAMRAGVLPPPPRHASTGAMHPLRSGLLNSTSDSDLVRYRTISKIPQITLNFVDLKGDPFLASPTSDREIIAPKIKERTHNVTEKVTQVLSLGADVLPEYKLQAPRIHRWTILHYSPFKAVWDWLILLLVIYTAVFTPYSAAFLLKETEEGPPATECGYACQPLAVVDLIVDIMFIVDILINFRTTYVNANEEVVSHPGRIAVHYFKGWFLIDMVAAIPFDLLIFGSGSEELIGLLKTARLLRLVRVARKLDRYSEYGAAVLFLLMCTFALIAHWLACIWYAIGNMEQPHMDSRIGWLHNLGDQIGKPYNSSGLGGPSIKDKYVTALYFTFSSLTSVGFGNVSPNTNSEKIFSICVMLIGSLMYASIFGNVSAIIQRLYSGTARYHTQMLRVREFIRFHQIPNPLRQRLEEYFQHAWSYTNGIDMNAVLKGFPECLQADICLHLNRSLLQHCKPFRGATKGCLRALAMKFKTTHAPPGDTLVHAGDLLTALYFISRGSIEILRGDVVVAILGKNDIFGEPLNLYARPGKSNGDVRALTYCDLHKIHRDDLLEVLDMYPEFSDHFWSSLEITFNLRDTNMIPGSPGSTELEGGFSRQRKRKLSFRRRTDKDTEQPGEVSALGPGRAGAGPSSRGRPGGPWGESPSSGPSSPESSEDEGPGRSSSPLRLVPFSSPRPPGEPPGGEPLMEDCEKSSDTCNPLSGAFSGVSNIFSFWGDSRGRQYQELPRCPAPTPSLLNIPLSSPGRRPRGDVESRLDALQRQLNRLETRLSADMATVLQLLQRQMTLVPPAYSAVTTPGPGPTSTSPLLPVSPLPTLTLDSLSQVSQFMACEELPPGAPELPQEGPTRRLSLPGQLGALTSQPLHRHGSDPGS
row,SMILES,"hERG current change (%, negative = inhibition) at 1uM [%]"
1,CN(C)S(=O)(=O)N1CCC(Oc2cccc(C(=O)NC3CCCCCC3)c2)CC1,4.06
2,O=CN1CCN(CC(O)Cn2c3ccccc3c3ccccc32)CC1 (stereo not shown),-2.21
3,O=C(Nc1cc(C(F)(F)F)ccc1N1CCOCC1)C1=COCCO1,8.41
4,COc1ccccc1NC(=O)N1CCCC1C(=O)Nc1ccc2c(c1)OCO2 (stereo not shown),2.76
5,O=c1c2ccccc2ncn1Cc1ccco1,-3.55
6,O=C(NCCN1CCOCC1)C(=O)NCC1OCCCN1S(=O)(=O)c1cc(F)ccc1F (stereo not shown),12.9
7,CSc1sccc1/C=C(/C#N)C(=O)c1ccco1,5.92
8,CC(=O)Nc1nnc(CCS(=O)(=O)c2ccc(C)cc2)s1,7
9,O=C(CNC(=O)c1ccccc1)OCc1nc2ccccc2s1,11
10,CSc1ccc(C(=O)C2CCCN(C(=O)c3cc(C)n(C)n3)C2)cc1 (stereo not shown),9.61
11,N#CCCN(C(=O)COC(=O)c1ccc2c(=O)n3c(nc2c1)CCC3)c1ccccc1,11.6
12,O=C(c1ccco1)c1nc2c(n1O)CCCCC2,-5.65
13,COCCCNc1oc(COc2ccc(Cl)cc2Cl)nc1C#N,13.6
14,CCCCNC(=O)CSc1nc(Cc2ccccc2)nc2ccccc12,-0.302
15,CC(=O)c1ccc(S(=O)(=O)Nc2ccccc2C(=O)NC2CC2)cc1,9.72
16,CN(Cc1ccco1)C(=O)c1ccc(OC2CCN(Cc3ccccn3)CC2)cc1,4.06
17,Clc1ccc(C[n+]2cc(-c3ccccc3)n3c2CCC3)cc1Cl.[Cl-],-2.44
18,COc1ccc(N2C(=NC(=O)C3CCCCC3)SC3CS(=O)(=O)CC32)cc1OC (stereo not shown),-8.06
19,N#CC1=C(N)N(c2ccccc2)C(c2ccco2)C1(C#N)C#N (stereo not shown),-4.24
20,COc1ccc([C@@H]2[C@@H]3C(=O)N(C(C)(C)C)C(=O)[C@@H]3[C@]3(Cc4ccccc4)C(=O)N(c4cccc(Br)c4)C(=O)N23)cc1,17.3
21,O=C(COC(=O)Cc1ccc(Cl)cc1)Nc1c(F)cccc1F,4.07
22,c1ccc(Cn2ccnc2SCc2nnc(-c3ccccc3)o2)cc1,4.9

row,SMILES,"hERG current change (%, negative = inhibition) at 1uM [%]"
1,O=c1ccnc(Nc2ccc3c(c2)OCCO3)[nH]1,12.3
2,CC(C)c1cccc(C(C)C)c1NC(=O)CN1C(=O)NC2(CCCC2)C1=O,14.1
3,O=C(O)CN1CCN(Cc2cccc(Cl)c2)C1=O,25.1
4,Cc1ccc(S(=O)(=O)N2CCOCC2)cc1NC(=O)COC(=O)c1ccc2c(c1)OCO2,19
5,CC(=O)C1C2c3ccccc3OC1(C)N=c1s/c(=C/c3cnn(C)c3)c(=O)n12 (stereo not shown),-9.19
6,COc1ccc(/C=N/Nc2nc(N)cc(Cl)n2)cc1OC,4.21
7,COc1ccc([C@H]2CC(=O)C=C(c3ccc(OC(F)(F)F)cc3)C2)cc1,10.9
8,Cl.Clc1ccc2nc3c(c(-c4ccccc4)c2c1)CNCC3,-0.111
9,COc1ccc(NC(=O)CCCN2C(=O)CN(C)C2=O)cc1Cl,5.38
10,Cc1ccc(C(=O)Nc2cnc3ccccn3c2=O)cc1,-16.5
11,CCOc1ccccc1NC(=O)NCCc1c[nH]c2ccccc12,11.5
12,Cc1ccc(S(=O)(=O)N(C)C)cc1NC(=O)COc1ccc(-c2nnco2)cc1,14.7
13,COc1ccc(C(=O)C(Sc2nnc(C)c(=O)[nH]2)c2ccc(OC)cc2)cc1 (stereo not shown),1.35
14,CC(=O)Nc1ccc(O)cc1[N+](=O)[O-],7.63
15,CCOC(=O)C1CCN(S(=O)(=O)c2ccc3[nH]c(=O)oc3c2)CC1,3.58
16,CSc1nc(O)c(C2OC(=O)c3ccccc32)c(=O)[nH]1 (stereo not shown),14
17,COc1ccc(N2CCN(C(=O)CSc3nnc4c5cc(C)ccc5n(C)c4n3)CC2)cc1,9.36
18,O=S(=O)(c1ccc(Cl)cc1)N1CCN(CCc2ccncc2)CC1,-14.5
19,O=C1CC(=O)N(Cc2ccccc2)C(=O)N1CCCCCCN1C(=O)CC(=O)N(Cc2ccccc2)C1=O,10.8
20,CCC(C)NC(=O)/C=C/c1cccs1 (stereo not shown),11.3
21,CCCc1n[nH]c2c1/C(=N/O)CC(c1ccccc1)C2 (stereo not shown),3.59
22,CN=C1SC(C(=O)O)CC(=O)N1C (stereo not shown),13.8

row,SMILES,"hERG current change (%, negative = inhibition) at 1uM [%]"
1,CCOC(=O)N1CCN(C(=O)c2cc(C)no2)CC1,14.1
2,O=C1NC(c2ccccc2)=NC1(NS(=O)(=O)c1ccccc1)C(F)(F)F (stereo not shown),-3.22
3,Nn1c(SCC(=O)NC2CCCC2)nnc1-c1ccccc1F,9.32
4,COc1cccc(CSc2nc3sc(C)c(C)c3c(=O)n2Cc2ccco2)c1,9.03
5,Cc1ccc(S(=O)(=O)N2CCCCC2)cc1NS(=O)(=O)c1cccc(C(=O)O)c1,6.22
6,O=C1OCC2=C1C(c1ccccc1)CC(=O)N2c1ccccc1 (stereo not shown),7.24
7,Fc1ccc(CNC(=S)NCc2cccc(Cl)c2)cc1,2.82
8,CN(C(=O)Cc1ccc2c(c1)OCO2)C1CCCN(Cc2ccccc2F)C1 (stereo not shown),8.49
9,Cc1oc(-c2cccc(Cl)c2)nc1CN1CCC(C(=O)NCC2CCCO2)CC1 (stereo not shown),-31.8
10,CC(OC(=O)c1ccc(S(=O)(=O)N2CCCCC2)cc1)C(=O)Nc1ccc(C(N)=O)cc1 (stereo not shown),9.21
11,CC(C)c1nc(SCC(=O)Nc2ccc3c(c2)OCCO3)c2c(=O)n(C)c(=O)n(C)c2n1,18.9
12,CCN(CC)S(=O)(=O)c1ccc(NC(=O)c2cc(C(=O)OC)cc([N+](=O)[O-])c2)cc1,7.16
13,Clc1cccc(Cl)c1/C=C/c1nc2ccccc2[nH]1,-4.05
14,COCCNC(=O)CSc1nnc(CCCN2C(=O)c3cccc4cccc(c34)C2=O)n1-c1ccccc1,10.3
15,CCOC(=O)C1CCCN(Cc2nc(Cc3cccc(F)c3)no2)C1 (stereo not shown),8.74
16,CCOc1cc(N2CCOCC2)c(OCC)cc1NC(=O)c1cc(C)nc2ccccc12,13
17,Cc1nn(Cc2ccc(Cl)cc2Cl)c(Cl)c1C(=O)Nc1ccc(OC(F)F)cc1,3.09
18,COc1cc(/C=N/Nc2nc(Nc3ccccc3)nc(N3CCOCC3)n2)ccc1OC(=O)c1ccco1,10.5
19,Cc1cc(C(=O)Nc2ccc(Cl)cc2)c2ccccc2n1,8.41
20,Cc1ccccc1C(=O)NC(=S)Nc1ccccc1[N+](=O)[O-],16
21,COC(=O)C1=C(C)N(CCCC(=O)O)C(=O)NC1c1ccc2c(c1)OCO2 (stereo not shown),9.04
22,CCOC(=O)N1CCN(C(=O)c2ccc(N(C)S(C)(=O)=O)cc2)CC1,14.1

row,SMILES,"hERG current change (%, negative = inhibition) at 1uM [%]"
1,COCCCn1c(=O)c2sccc2n(Cc2ccc(C)cc2)c1=O,21.2
2,CC(C)(C)OC(=O)N/N=C\C=C\c1ccc2c(c1)OCO2,11.1
3,Cc1ccc(Cn2c(CCC(=O)O)nc3ncccc3c2=O)cc1,15.1
4,O=C(COC(=O)C12CC3CC(CC(C3)C1)C2)Nc1ccccc1F,18
5,CC(=O)Nc1ccccc1OCC(=O)NC1CCCCC1C (stereo not shown),9.83
6,Cc1cc[n+](-c2[nH]c(=O)sc2/C=N/N=C(\[O-])c2ccncc2)cc1,-1.23
7,CCOc1ccc(-c2nc(N)ncc2Oc2ccc(OC)cc2)c(O)c1,7.09
8,Cc1ccc(S(=O)(=O)N2CCc3cc4c(cc3C2C)OCCCO4)cc1 (stereo not shown),21.5
9,O=C(CSc1ncccn1)N/N=C/c1ccc2c(c1)OCO2,1.72
10,Cc1ccc(/C=C2\SC(=S)N(CCC(=O)Nc3ccc(O)cc3)C2=O)cc1,0.921
11,CCc1ccc(N(CC(=O)NC2CCCC2)C(=O)CCC(=O)Nc2cc(C)on2)cc1,-10.2
12,COc1ccc(OC)c(S(=O)(=O)N2CCCC(C(=O)N3CCOCC3)C2)c1 (stereo not shown),18
13,CC(NC(=S)Nc1ccccc1)C1COc2ccccc2O1 (stereo not shown),5.61
14,CCC(CO)NCc1ccc(OCC(O)c2ccccc2)c(OC)c1.Cl (stereo not shown),14
15,Cn1c(SCC(=O)NCc2ccco2)nc2ccccc2c1=O,-10.3
16,CC1(C)CC(=O)C2=C(C1)OC(N)=C(C#N)C2C1CC=CCC1 (stereo not shown),12.9
17,N#Cc1c(-n2ccnc2)cccc1-n1ccnc1,1.46
18,Cc1ccnc(N2CCC(C(=O)Nc3ccc4c(c3)OCO4)CC2)n1,7.12
19,CCc1sc(C(=O)Nc2ccc(NC(C)=O)cc2)cc1C,14.6
20,COc1cc(C(=O)N2CCN(C(=O)c3ccco3)CC2)c([N+](=O)[O-])cc1OC,14
21,CC(C)c1ccccc1-n1c(SCC(=O)c2ccc3c(c2)NC(=O)CO3)nc2ccccc2c1=O,6.71
22,CCCN(Cc1ccc(N(CC)CC)cc1)CC1CC1,10.3
